Where a structure was tested more than once in an assay, its records may differ in their call.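 For each line, cells grew in 96-well plates with the test compound present at a single concentration for 48 hours.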 The source holds more than one record for some entries. Only these are listed. The calls were made as follows: active = growth percent below 10; inactive = the rest. An entry can have further records. These are repeated runs of one drug, at the concentration stated with the values; each value is one run. Counts like (3×) stand for listed records that agree.
Legend:
HCT-116 colon = assay: NCI-60 one-dose screen, 48 h (100 = growth as untreated, 0 = no growth, -100 = all killed); conditions: 25 µM
HCC-2998 colon = assay: as above; conditions: 0.25 µM

For `COc1cccc2c1C(=O)c1c(O)c3c(c(O)c1C2=O)C[C@@](O)(C(=O)CO)C[C@@H]3OC1CC(N)C(O)C(C)O1` (some centres not stated), the growth (HCT-116 colon; runs of 1994) was “active: 2.42, -19.7, -20.4, -23.2, -41.9, 2.12, -31.5, -5.02, 0.622, 0.942, -27.6, -20.1, -11.5, -48, -17.1, 4.47, -5.79, 4.9, -21.6, -4.52, -46.3, -18.8, 4.27, -43.4, 7.08, -1.42, -7.55, 3.6, -18.7, 4.91, 4.25, 0.576, -14.9%”, the growth (HCT-116 colon; runs of 1995) was “active: -10.6, -24.3, 4.18, 1.89, 2.75, 1.61, 3.12, 1.85, 2.35, 6.78, -27.8, -15.5, 7.59, 8.04, -5.85, 8.06, 2.57, -15.2, -21.7, -56.8, -32.9, -28.7, -11.5, 0.793, 0.922, -19.9, 1.73, 3.77, -34.8, -10.3, -37.7, -39.5, 1.26, 1.68, 3.44, -14.9, -2.67, -0.193, 1.69%” and the growth (HCT-116 colon; runs of 1996) was “active: -5.92, -36.9, 0.616 (2×), -3.49, 1.99 (2×), 0.532, 2.77, 4.48, 1.13, 6.7, 6.69, 3.51, -6.76, 7.2, -14, -38.9, -9.2, 1.8, -12.8, -5.54, -7.58, -19, 6.53, 1.93, -13.3, 2.37, 3.25, -17.7, -56.8, -24.5, 2.49, 5.08, 0.43, -9.86, -3.61, -30.8, -8.03, 6.08, 3.79, 2.85, 0.767, -25.8, -14.2, -26.7, 8.79, -5.46, -14.7, -12.1, -20.5, 6, 6.21, 2.48, 6.98, -10, -48.7% and inactive: 97.2%, 35.1%”. For the same molecule, the growth (HCT-116 colon; runs of 1997) was “active: -10, 1.11, -2.34, 2.79, 0.461, -8.75, 6.32, -18, -29.6, 4.28, 0.387, -1.59, -11.1, 3.78, -47.3, -6.31, 1.71, 5.44, -36, 0.201, 0.933, -24.1, 8.51, -50.9, 1.12, -30, 5.67, 0.675, 0.623, -32.4, -30.7, -3.1, -60.2, -15.1, -11.8, 0.741, 1.93, -7.47, -23.9, -1.25, -27.9, 8.37, -43.4%”, the growth (HCT-116 colon; runs of 1998) was “active: -31.5, -29.3, 6.13, -38.6, 4.95, 5.45, -8.93, 1.41, -19.3, -52.8, -15.8, -9.13, 1.26, 4.54, 6.22, 0.542, 1.37, 6.04, -17.1, -45.1, 0.814, -14.2, -55.7, -9.53%” and the growth (HCT-116 colon; runs of 1999) was “active: 2.51, -20.9, 7.19, -12.2, -5.5, -30.1, -100 (2×), 0.0743, -89.6, -33.3, -59.3, 1.9, 2.12, -86.8, -91.3, -82.8, -49.6%”. The growth (HCT-116 colon; runs of 2000) was “active: -97.5, -100, -25.5, -50.3%”, the growth (HCC-2998 colon; runs of 2006) was “active: -23% and inactive: 47.8%” and the growth (HCC-2998 colon; runs of 2007) was “active: -22.5, -7.88, -13.1, -27.1, -32.6, -2.46, -11.4, -3.64, 3.73% and inactive: 53.3, 45.1, 36.9, 30.4, 42.5, 50.6, 61, 27.8, 38.9 (2×), 44.3, 69.5, 66.6, 70.2, 39.1, 57, 79.5, 33.8, 51.7, 69.4, 44.7, 38.2, 69.7, 69.8, 83.8, 58.6, 48.5, 20.8, 43.4, 46.5, 57.8%”. The growth (HCC-2998 colon; runs of 2008) was “inactive: 55.2, 54.6, 46.1, 58, 65.4, 40.1, 28.9, 39.2, 39.4, 62.9, 24.6, 45, 53.1, 42 (2×), 54, 43.8, 19.6, 26, 46.9, 37.8, 26.2, 106, 56.6, 14.3, 41.5 (2×), 17.7, 52.2, 25.4, 50, 41.8, 20.6, 51.4, 21.4, 65.7, 62.6, 59.9, 60.4, 50.3, 71.6, 66.8, 23, 14.6, 66.5, 34.4, 59.6% and active: -20.7%, -17.3%”, the growth (HCC-2998 colon; runs of 2009) was “inactive: 27.6, 17, 58, 10, 60.7 (2×), 71.2, 77.1, 67.6, 79.1, 69.9, 73, 70.2, 30.9, 62.8, 71.7, 43.8, 40.9, 46.5, 54.9, 79.9, 57.8, 40, 46.8, 51 (2×), 62.1, 43.6, 49.2 (2×), 52.5, 42.3, 77.3, 50.9, 42.6, 46.6, 68.4, 72.5, 67.5, 58.5, 44.6, 39.6, 33.4, 49, 48.3, 54.5, 43, 47.3, 32, 54.1, 45.4, 52.9, 22.4, 36.3, 46.2, 72.2, 63.7, 32.9, 51.1, 57.5, 62.6, 49.3% and active: -2.51%” and the growth (HCC-2998 colon; runs of 2010) was “inactive: 79.9, 59.1, 61.9, 46.4, 49.6, 59.5, 68.7, 70.7, 55.9, 41.2, 55.6, 62.1, 55.2, 57.8, 23.5, 35.5, 41.4, 42.3, 61.6 (3×), 37.3, 73.6, 71.2, 60.3, 45.1, 89.9, 49, 60.1, 77.2, 86.2, 59, 85.8, 60.2, 68.4, 58.1, 77.6, 62.6, 61.5, 67.1, 58.7, 65.5, 72.2% and active: 8.89%”. The growth (HCC-2998 colon; runs of 2011) was “inactive: 69.3, 62.9, 61.7, 62, 74.8, 60.1, 69, 58, 72.8, 69.1, 63.6 (2×), 66.3, 68.4 (2×), 66.5, 64.4, 62.8, 67.7 (2×), 74.5, 63.1, 66, 70.8, 63.8, 59, 56.8, 45.9, 55.5, 55.6 (2×), 50.8, 49.6, 50.6 (2×), 55.7 (2×), 50.7 (2×), 45.3, 40.5, 48.8, 43.4, 37.2, 53.4, 49.7, 46.9, 54.9, 56.5, 43.5, 45.2, 46.2, 62.4, 59.1, 66.8, 59.3%”, the growth (HCC-2998 colon; runs of 2012) was “inactive: 59.3, 44.9, 45.9, 51.7, 64.6, 64.5 (2×), 65.1, 71.6, 74.5, 46.8 (3×), 33, 52, 53.6, 59.1, 54.1, 63.9, 77.6, 52.6, 49.3, 52.8, 40.6, 41.2, 51.9, 61.1, 51.4, 56.7, 65.5, 68.7, 80.1, 75.6, 58.3, 70.9, 52.5, 54.7, 68.4, 46.9, 67.9, 80, 77.7, 50.3, 65.4, 68.8, 66.7 (2×), 70, 72.6, 77.3, 74.6 (2×), 71.3 (2×), 61, 65.9, 76.4, 75, 79.4, 93.5, 72.1, 76.1, 68.2, 72, 88.3, 78.5, 73.2, 37.5%” and the growth (HCC-2998 colon; runs of 2013) was “inactive: 68.8, 59.6, 65.4, 67.7, 82.3, 74 (2×), 76 (2×), 48.2, 65.1, 71.6, 80.7, 73.3, 69.1, 81.4, 73.7, 80.5, 73.4, 62.4, 66.3 (2×), 57.5, 73.8, 71.8, 59.8, 68.1, 79.1, 74.1 (2×), 79.6, 58.2, 60, 84.5, 66.9 (2×), 83.9, 84.3, 89.4, 79.2, 79.8, 71.4, 77.1 (2×), 74.9, 69.3, 64.1, 79.5, 76.4, 72.8, 62 (2×), 64, 58.9, 87.9, 49.2, 51.9, 53.6, 52.9, 66.2, 61, 62.6, 63.9, 54.4, 61.6, 63.4, 55.4, 72.7, 52.5, 57.9, 62.8, 61.8%”. For the same molecule, the growth (HCC-2998 colon; runs of 2014) was “inactive: 76.9, 61.9, 51.2, 71.6, 65.3, 56.5, 68.2, 59.1, 58.6, 56.2, 59.5, 69.6, 57.8 (2×), 67.3, 74.1, 52.7, 57.2, 67.1, 60.2 (2×), 70.2, 56.6, 69.2, 57 (3×), 64, 64.5, 68.8, 62.9, 67.9, 58.9, 55.7, 63.4, 62.6, 69.9, 64.3, 69.4, 55.6, 58.3, 53.2, 53.7, 51.7, 44.7, 44.8, 60.1, 58.4, 59.3, 53.6, 58, 64.6, 67.2, 56.8 (2×), 46.3, 34.3, 46, 66.3, 65.6, 65.5 (2×), 49.1, 63.8 (2×), 57.9, 70, 39, 48.6, 51.9, 43.2, 59.8, 61, 45.4, 70.9, 63.7, 44.5%”, the growth (HCC-2998 colon; runs of 2015) was “inactive: 63.2, 76.1, 73.9, 60.7 (2×), 61.9 (2×), 56.6 (3×), 62.7, 69.3, 55.5, 66.9, 62.6, 49.1 (3×), 50.4, 62, 56.7, 47.8 (3×), 51.4, 46.4, 60.4 (2×), 53.6, 66.6, 52.9 (2×), 54.9 (2×), 52.3, 57.7, 66.1, 48.7, 60.6, 65.5, 58.8, 60, 67.4, 69.5, 56.8, 54.7 (3×), 42.1, 60.1, 72.5, 64.3, 60.3, 46.6 (2×), 67.5, 69.6, 51.2, 54.4, 45.6, 59.8, 59.9, 57 (2×), 58, 63.3, 64.4, 54.1, 52.5 (2×), 54.2, 46.1, 63.5, 55.2, 72.8, 58.7, 49.5, 64.1%” and the growth (HCC-2998 colon; runs of 2016) was “inactive: 73.2, 76.3 (2×), 58, 66.1 (2×), 50.4, 56.6 (2×), 65.7, 58.6 (2×), 67.9, 53.1, 67.2, 47.8, 63.3 (2×), 49.8, 66, 59.6, 45.6, 55.5 (2×), 72.2, 61.9 (2×), 68.8, 65.6, 54.2, 49.5, 53.6 (2×), 64.1, 73, 76, 64.6 (2×), 60.3, 77.2, 78.4, 78.8, 64.7, 74, 77.3, 71.9, 72.7, 67.6, 70.3 (3×), 69.3, 71.2, 75.6, 61.1 (2×), 69, 61, 70, 67.4, 78.2, 72.1, 63.5, 61.6, 62.4, 61.5, 67.3, 62.5, 59.1, 68.6 (2×), 55.7, 71, 81.1, 71.8, 60.1, 57, 61.7, 65.2 (2×), 58.4, 86.1, 85.7, 74.1%”. The growth (HCC-2998 colon; runs of 2017) was “inactive: 62.1 (2×), 62.8 (3×), 66.1, 63.2, 62.6, 58.6, 59.3 (2×), 46.5, 53.6 (2×), 54.4 (2×), 58.1, 53.1 (2×), 53.4, 46.1 (2×), 49.4, 52.2, 54.9, 58.2, 59.7 (2×), 45.1, 53, 58, 66.8 (2×), 58.4 (2×), 69, 69.2, 60, 60.1 (2×), 56.1, 56.5, 59, 67.5, 53.7, 57.3, 54.2, 57.8, 52.3 (2×), 71.2, 74.2, 64.4, 53.8 (2×), 56.2, 58.5, 56, 57.9, 69.8, 68.6, 81.8, 75.9, 55.6, 56.6, 64.3, 51.3, 52.6, 43.2, 43.5, 49.8, 51.6, 47.1, 42.5, 59.1, 57.2, 56.8, 61.5, 61.7, 55.4, 46.7%”, the growth (HCC-2998 colon; runs of 2018) was “inactive: 56.5 (2×), 63.1, 79, 77, 51.3, 50.9, 52.3, 48.7, 91, 43.3, 64, 60.7 (2×), 62.6, 73.1, 74.5, 70, 53.2, 59.1, 57.2, 54.5, 59.7, 59.3, 62, 56.1, 56.2, 60.6, 53.8, 54, 57.3 (2×), 52, 57.9 (2×), 59.8, 52.7, 65.9, 61 (3×), 58.4, 56.7, 65.3, 55.5, 62.3, 52.5, 52.8, 72.2, 68.5, 32, 55.2%” and the growth (HCC-2998 colon; runs of 2019) was “inactive: 33.6, 29.4, 40.5, 26.4, 33.7, 45, 48.5, 48.4, 50.8 (2×), 50.4, 56.5, 59.6, 59.9, 42.3, 51.6 (2×), 53.1, 54.9, 56.8 (2×), 55.5, 54.2, 63.6, 63.3, 51.2, 63.5, 59.2, 58, 52.2, 66.6, 57.8, 59, 69.7, 72.4, 68.7, 73.6, 77.2, 58.3, 48.7, 62.5, 54, 57.3, 47.7, 52.7, 44%”. The growth (HCC-2998 colon; runs of 2020) was “inactive: 34.6, 39.6, 42.3, 50.4, 53.2, 49.2, 59.2, 60, 53.3, 54.6 (2×), 50.3, 46.2, 54.7, 53, 52.6, 54.9, 52.1, 57.9, 44.7, 56.8, 55.1, 58.5, 60.6, 51.3%”.

Reference: PubChem BioAssay (NCI)
